The RNAGym collection of RNA variant scans (doi:10.7554/elife.90254)
Read counts are not given, so values of variants with three or more changes are uncertain.

B1: LINE1-mini (parent)
chain: GGCAGAGCUCAACACAGCGUGGCAAAGUGGCUGUGGCUAGACUGCC

Variants of: B1
Experiment: self-cleavage, relative activity (ratio to wild type); higher = more cleavage; in vitro, sequencing; the parent is a self-cleaving ribozyme

| Variant | self-cleavage |
| --- | --- |
| G2C A12U C15U U32G | 0.02 |
| G2C A14G G27A U38G A39C G44U | 0.07 |
| G2C A6U U38G C46A | 0.1 |
| G2C C3A C8A A24C | 0.16 |
| G2C A14C C42G | 0.01 |
| G2C A6U U38G A39C A41U C45U | 0.54 |
| G2C A11C A24U C42A | 0.01 |
| G2C A6U A24G C37U | 0.02 |
| G2C C8A G22A C23A C45G | 0.22 |
| G2C A24U G30U | 0.23 |
| G2C C3A C10G A26C C31U | 0.04 |
| G2C A12U C45A | 0.06 |
| G2C C3U G19A | 0.12 |
| G2C A6U A12G A41G | 0.03 |
| G2C C3U A6U G21A C23G C45G | 0.42 |
| G2C A16U C23A U28C U34C A39C G44U | 0.01 |
| G2C A25G G27C A39U C45G | 0.3 |
| G2C C3U A14G C18U G40C | 0.13 |
| G2C A16U G40A | 0.01 |
| G2C C8G A25G G36U | 0.06 |
| G2C A12G C23U C37A U43A | 0.1 |
| G2C C3U A12G | 0.02 |
| G2C C3G G5U A6C C13A G27A | 0.02 |
| G2C C8G A16C | 0.12 |

| Variant | self-cleavage |
| --- | --- |
| G2C A11C G19U U28C G33C C37G G44A | 0.01 |
| G2C A14G G35C | 0.03 |
| G2C A11C G40A | 0.01 |
| G2C A6U C13G G40A | 0.08 |
| G2C A12G G21C C31G | 0.05 |
| G2C C8A U43A | 0.32 |
| G2C A12G C31A U34G C42U | 0 |
| G2C C3U C31G C45U | 0.03 |
| G2C A11C C31U A39U | 0 |
| G2C A16C G19U | 0.3 |
| G2C A26C G36A | 0.08 |
| G2C A11U C13U C15G A25C C37A | 0.01 |
| G2C A12U A14U | 0.09 |
| G2C A16G G21C | 0.28 |
| G2C A11U A16U U32A | 0.01 |
| G2C A6U G7A C8A U34C | 0.8 |
| G2C A6U U9G G22U U34C C46G | 0.13 |
| G2C A16C C23A C31U | 0.08 |
| G2C A25U G29U | 2.91 |
| G2C C8G A12U | 0.05 |
| G2C A14C A25G A39G C46A | 0.01 |
| G2C A14C A16U G22U G27A | 0.38 |
| G2C C3A A4G C8U G21A | 0.19 |
| G2C A24C G29A U34A | 0.03 |

| Variant | self-cleavage |
| --- | --- |
| G2C C3G G7U A14U G29A C31A | 0.24 |
| G2C A11C G35C | 0.02 |
| G2C A11U A16C | 0.01 |
| G2C C8G G33A | 0.06 |
| G2C C8A A24U A39U C46G | 0.12 |
| G2C A24C U28A C42A | 0.02 |
| G2C A6U U28C U34G | 0.05 |
| G2C A6U A12C G22A G40A | 0.01 |
| G2C A6G G21U | 0.03 |
| G2C C3A A4G A6G U9A G22A | 0 |
| G2C A25C G29A G35U | 0.02 |
| G2C C3U G19C U32A | 0.07 |
| G2C A6G C15A G19A | 0.02 |
| G2C A12U C18A G30A U34A G44C | 0.02 |
| G2C C3A G22A G27U | 0.13 |
| G2C A14G U28C A41U G44U | 0.03 |
| G2C C3U G27A | 0.62 |
| G2C C3U G27C | 0.08 |
| G2C A11G G21U U32A C45G | 0.01 |
| G2C A16C A24C U43C | 0.05 |
| G2C A6G C37U | 0.04 |
| G2C A12U C31G C45A | 0.01 |
| G2C C8G A14G G35A | 0.14 |
| G2C A11U G30C C37A G40C U43C | 0 |

| Variant | self-cleavage |
| --- | --- |
| G2C A14U G22C G35C A41G C45G | 0.01 |
| G2C A11C A16C G17A G22A C37A | 0.01 |
| G2C A11G C18A | 0 |
| G2C A14G C23G | 0.05 |
| G2C A11G A12U G17U G29C | 0.01 |
| G2C C3U A16U G21A G22A | 0.03 |
| G2C A6U U28G U34C C37U A41C | 0.03 |
| G2C A11U C18A A24C | 0 |
| G2C A11C A16C A25G G29A | 0.01 |
| G2C A16C G36C | 0.09 |
| G2C A12U G29U | 0.3 |
| G2C C3A A14U G40U | 0.04 |
| G2C C3G G17U C42U | 0.09 |
| G2C A14G G27A G30U | 0.01 |
| G2C C3G C15A | 0.05 |
| G2C A12G A41C | 0.04 |
| G2C C3A G27C U32G U34G U38A C45G | 0.01 |
| G2C A11U G22A | 0.02 |
| G2C A12U C13G A24C | 0.05 |
| G2C C3A C37A A41G | 0.07 |
| G2C C8A C18A C42A G44C | 0.07 |
| G2C A12U C23U G30A C46A | 0.02 |
| G2C C8G U9C A14U A25U G27U G36C | 0.01 |
| G2C A14G G44U | 0.02 |

| Variant | self-cleavage |
| --- | --- |
| G2C C3A A4G C8G U9C G19A G30C G44A | 0.01 |
| G2C C8A G30U G40A | 0.09 |
| G2C C3A C42U U43A | 0.05 |
| G2C C3U C23G G44U | 0.21 |
| G2C A24C G33A | 0.08 |
| G2C A24C G33U | 0.12 |
| G2C A12G U20A | 0.02 |
| G2C A14G G22A | 0.05 |
| G2C C3U C13G A16C G17A U32A C46A | 0.02 |
| G2C C8G A11C | 0.05 |
| G2C A12G C13A | 0.03 |
| G2C A12U C15A C31U | 0 |
| G2C A16C A41G | 0.02 |
| G2C A16G A24G C37A C46G | 0.61 |
| G2C A6U G40A C45U | 0.02 |
| G2C A14C C18A C23U | 0.02 |
| G2C A14U C31G U38G | 0.09 |
| G2C A25U U28C U38G C45G | 0 |
| G2C A24U G27U | 0.09 |
| G2C A11G A14G G33C | 0 |
| G2C A14U A26U C42U U43C | 0 |
| G2C A6U A14G C15G G29U | 0.04 |
| G2C A6G G7C U32G A41G | 0.07 |
| G2C A14U G19U C31G | 0.06 |

| Variant | self-cleavage |
| --- | --- |
| G2C C3A A6U G35A | 0.03 |
| G2C A16U G40U A41U | 0.13 |
| G2C A11U G17A U43A | 0.01 |
| G2C C3A C15G G22U C37A C46A | 0.01 |
| G2C A26U G44U | 0.12 |
| G2C A16U G17U C18A G29U G30A | 0.01 |
| G2C C3G C18G U20A | 0.02 |
| G2C A11U G19U A41C | 0 |
| G2C A11C C13U A41C C46A | 0 |
| G2C A16G A25C | 0.03 |
| G2C C8U A24U G33U | 0.03 |
| G2C C8A A12U G33U | 0.16 |
| G2C A6G C31U | 0.06 |
| G2C C8U A12G A24U | 0.06 |
| G2C A11U G19U A25C C37G | 0.01 |
| G2C C3A A4G G19U G21A | 0.04 |
| G2C C8G C13G A26U G27U U38C | 0 |
| G2C A12G G21U U28A | 0.02 |
| G2C A14G C15A | 0.13 |
| G2C A26U G27C | 0.03 |
| G2C A12C G33C C42G | 0 |
| G2C C8G C31A G35U G40U U43G | 0.01 |
| G2C A11G C13G G44U | 0.03 |
| G2C A26U G30A G36C | 0.1 |

| Variant | self-cleavage |
| --- | --- |
| G2C C3U A11C G22U C46A | 0.09 |
| G2C A6G G22C C37G | 0.01 |
| G2C A24C A25C | 0.03 |
| G2C C3A U32A | 0.07 |
| G2C A12U G33A | 0.03 |
| G2C C3G C8U U9A C31U C42A | 0.13 |
| G2C A12U G27C | 0.02 |
| G2C C3U A4G C13G G17A C45G | 0.03 |
| G2C A14C G35U | 0.08 |
| G2C C3G C31U C46G | 0.06 |
| G2C A25C A26U C42U | 0.09 |
| G2C A24U A39U | 0.22 |
| G2C C3A A4G G5C G17A C18U | 0.04 |
| G2C A11U A26U | 0.02 |
| G2C A6G U20A A26U G36U C45G | 0.01 |
| G2C C8G G22A C23A C37A G44C | 0 |
| G2C C3A G5U G7C G19C C23A G29C C31A G33A | 0.12 |
| G2C C3A A14C G27C C37G A39C | 0.08 |
| G2C A12G C18U G19C G21C G36U G44U | 0 |
| G2C A11G A41G G44C | 0.03 |
| G2C A14C G22A | 0.04 |
| G2C C8G A25G A39U | 0.11 |
| G2C A26C U34A G36U | 0.03 |
